Assay results from article PMC4336329 (PLoS ONE, 2015).
The campaign covered roughly 310,000 compounds. About 14,000 (4.5%) showed an effect of 50% or more. The effect is printed as a negative number. The list shows a part of the results.

molecular target: human ether-à-go-go-related gene (hERG) potassium channel (human, UniProt Q12809); assay: primary screen, population patch clamp on CHO cells stably expressing hERG
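Note: peak tail current of the secondary pulse compared with the same well before compound.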

Chain of human ether-à-go-go-related gene (hERG) potassium channel (Q12809 whole entry, looked up): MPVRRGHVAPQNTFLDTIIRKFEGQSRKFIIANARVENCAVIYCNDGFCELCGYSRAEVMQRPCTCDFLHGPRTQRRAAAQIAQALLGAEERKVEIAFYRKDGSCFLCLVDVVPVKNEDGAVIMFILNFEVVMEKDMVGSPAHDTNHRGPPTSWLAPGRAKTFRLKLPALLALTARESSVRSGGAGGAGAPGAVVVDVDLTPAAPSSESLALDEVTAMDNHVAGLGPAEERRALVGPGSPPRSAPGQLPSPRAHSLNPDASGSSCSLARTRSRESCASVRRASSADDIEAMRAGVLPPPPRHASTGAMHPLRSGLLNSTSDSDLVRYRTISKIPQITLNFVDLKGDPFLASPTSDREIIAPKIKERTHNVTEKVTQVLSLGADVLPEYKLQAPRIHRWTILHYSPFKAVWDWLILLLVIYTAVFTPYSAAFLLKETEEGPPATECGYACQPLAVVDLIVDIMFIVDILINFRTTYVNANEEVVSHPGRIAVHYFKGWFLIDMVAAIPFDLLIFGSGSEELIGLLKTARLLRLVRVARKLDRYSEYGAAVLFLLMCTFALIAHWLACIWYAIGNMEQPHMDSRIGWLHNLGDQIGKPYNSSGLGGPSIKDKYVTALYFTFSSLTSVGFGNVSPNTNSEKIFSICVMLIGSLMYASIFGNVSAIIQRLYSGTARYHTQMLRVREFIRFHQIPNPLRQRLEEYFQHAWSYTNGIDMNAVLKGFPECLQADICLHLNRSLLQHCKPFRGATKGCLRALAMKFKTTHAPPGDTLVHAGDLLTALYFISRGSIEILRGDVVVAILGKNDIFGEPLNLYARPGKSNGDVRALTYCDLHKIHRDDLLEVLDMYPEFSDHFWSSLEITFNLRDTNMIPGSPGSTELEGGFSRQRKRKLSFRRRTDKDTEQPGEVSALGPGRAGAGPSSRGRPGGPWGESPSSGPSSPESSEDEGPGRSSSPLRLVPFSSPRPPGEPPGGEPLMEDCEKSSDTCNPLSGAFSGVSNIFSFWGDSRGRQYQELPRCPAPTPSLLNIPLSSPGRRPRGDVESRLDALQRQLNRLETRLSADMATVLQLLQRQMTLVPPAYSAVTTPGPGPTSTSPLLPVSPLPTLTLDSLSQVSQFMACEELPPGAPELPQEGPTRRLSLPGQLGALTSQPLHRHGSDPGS

Row | SMILES | hERG current change (%, negative = inhibition) at 10uM
1 | O=C(O)C1CCCCC1C(=O)Nc1cccc(Br)c1 (stereo not drawn) | 2.78%
2 | NNc1n[nH]c(=S)n1N | 15.2%
3 | O=C(CCn1c(=O)c2ccccc2n(CC(=O)N2CCN(c3ccccc3)CC2)c1=O)NCc1ccco1 | -21.1%
4 | COc1cccc(C(c2c(O)nc(SC)n(C)c2=O)c2c(O)nc(SC)n(C)c2=O)c1 | 0.717%
5 | O=C1/C(=C\c2ccc3ccccc3c2)CCCc2ccccc21 | -21.7%
6 | CCn1cnc2cc(NCc3ccc(OC)cc3)ccc21 | -39.4%
7 | Cc1ccc(NC(=O)COc2cccc3ccccc23)c(O)c1 | 6.89%
8 | CCOC(CNC(=O)CCc1c(C)nc2nc(C)nn2c1C)OCC | 3.54%
9 | Cc1ccc(C(=O)N2CCOCC2)cc1S(=O)(=O)Nc1cccc(C)c1C | 2.37%
10 | COc1ccc(/C=N/Nc2nc(-c3cccc(S(=O)(=O)N4CCCC4)c3)cs2)cc1OC | 16.8%
11 | O=C(O)c1ccccc1N1C(=O)C2C3c4ccccc4C(Br)(c4ccccc43)C2C1=O (stereo not drawn) | 18.4%
12 | COc1cc(N2CCCC2)ccc1[N+](=O)[O-] | -6.45%
13 | C/C(=N\NC(=O)c1cccnc1)c1nnn(-c2nonc2N)c1C | 11.7%
14 | CCCC(C(=O)NC(C)(C)C)N(CC1CCCO1)C(=O)c1snc(C(N)=O)c1N (stereo not drawn) | -39.2%
15 | O=c1[nH]c(/C(Cl)=C/c2c(F)cccc2Cl)nc2cc(Cl)ccc12 | -8.5%
16 | O=C(/C=C/c1cc2c(cc1Br)OCO2)NCc1ccc(Cl)cc1 | -0.662%
17 | COc1cc(NC(=O)c2ccc3c(c2)OCO3)ccc1NC(=O)c1ccco1 | 10.4%
18 | CCC1Oc2ccccc2N(CC(=O)NCc2cccs2)C1=O (stereo not drawn) | -5.48%
19 | COc1ccccc1Sc1nc(-c2ccccc2)ncc1OC | 24.3%
20 | Br.Cc1ccc(N2Cc3ccccc3C2=N)cc1[N+](=O)[O-] | -4.21%
21 | Clc1ccc(-n2nnc(-c3nccs3)n2)cc1Cl | 25.7%
22 | CC(=O)Nc1ccc(NC(=O)CCC(=O)Oc2ccc(C)cc2)cc1 | 19.3%
23 | COc1cc(CCN2C(=O)N[C@@H](CCc3ccccc3)C(C(C)=O)=C2C)cc(OC)c1OC | -12.6%

Row | SMILES | hERG current change (%, negative = inhibition) at 10uM
24 | Cc1sc2ncnc(N/N=C/c3ccc(O)cc3)c2c1C | 2.28%
25 | COc1ccc(-n2nc3c(c2NC(=O)c2ccc(S(=O)(=O)N4CCOCC4)cc2)CS(=O)(=O)C3)cc1 | 14.6%
26 | COc1ccccc1C(CNC(=O)C(C)Oc1ccc(Br)cc1)N1CCCC1 (stereo not drawn) | -36.1%
27 | Cc1ccc(S(=O)(=O)C(CCC(=O)N2CCOCC2)S(=O)(=O)c2ccc(C)cc2)cc1 | -4.64%
28 | O=C(/C=C/C=C/c1ccccc1)CC1(O)C(=O)Nc2ccccc21 (stereo not drawn) | -0.376%
29 | N#Cc1ccc(OCC(=O)Nc2ccccc2NS(=O)(=O)c2cccs2)cc1 | -22.1%
30 | O=C(NNc1cc(Br)c(O)c(Br)c1)c1ccccc1 | 4.27%
31 | CN(C(=O)COC(=O)c1ccc(C#N)cc1)c1ccccc1 | -6.57%
32 | Cc1cc(C)cc(-n2nc(C)cc2N)c1 | 0.795%
33 | Cc1ccc(SC(C)C(=O)NC2CC2)cc1 (stereo not drawn) | -10.3%
34 | Cc1ccc(NC(=O)COC(=O)Cn2cnc3ccccc32)cc1S(=O)(=O)N(C)C | 6.28%
35 | COc1cc(OC)cc(C(=O)OCC(=O)NC2CCCCCC2)c1 | -3.73%
36 | O=C(Nc1nc2ccccc2[nH]1)c1ccccc1O | 13.5%
37 | O=C(Cc1cccs1)NCc1ccccc1Br | 9.98%
38 | CC(=O)c1c(C)[nH]c(C(=O)OCc2ccc([N+](=O)[O-])cc2)c1C | 5.23%
39 | CCC(CC)C(=O)Nc1nnc(-c2cccs2)s1 | 1.93%
40 | CN(C(=O)Cn1c(=O)oc2ccccc21)C1CCCCC1 | -1.73%
41 | O=C(NCCCn1ccnc1)c1cc2ccccc2oc1=O | -10.6%
42 | O=C(CCNS(=O)(=O)c1ccc(OC(F)(F)F)cc1)N1CCN(S(=O)(=O)c2cccc(F)c2)CC1 | -31.9%
43 | COc1cc(C(=O)NCc2ccncc2)cc(Br)c1OCc1ccccc1 | -31.2%
44 | CCc1ccc2c(c1)cc(CN(Cc1ccco1)C(C)=O)c1nnnn12 | -25.5%
45 | COC(=O)c1ccc(NC(=O)Cn2nc(SC)n(N)c2=S)cc1 | 7.17%
46 | O=C(NCC1CCCO1)c1cc(-c2ccccc2F)no1 (stereo not drawn) | 24.7%

Row | SMILES | hERG current change (%, negative = inhibition) at 10uM
47 | COC(=O)c1ccc(CNC(=O)CSc2nc3ccccc3[nH]2)cc1 | -15%
48 | CC1(C)CC(NC(=O)COc2ccc3ccc(=O)oc3c2)CC(C)(C)N1 | 16.6%
49 | Cc1nc2c3ccccc3n(Cc3ccccc3F)c2s1 | 18%
50 | Cc1cc(/C=C(/C#N)C(=O)Nc2ccccc2)c(C)n1-c1cccnc1 | -28.5%
51 | COc1ccccc1NC(=O)Nc1cccc(C)n1 | 11.7%
52 | NC(=O)c1ccccc1NS(=O)(=O)c1ccccc1 | -0.997%
53 | O=C(c1cnn(C(=O)c2ccc(O)cc2)c1)c1ccccc1O | 16.5%
54 | Cc1ccc(NC(=O)CCSc2nnc(Cc3ccccc3)o2)cc1 | -4.94%
55 | CC1(C)CC(CCNCc2ccc3c(c2)OCO3)(Cc2ccccc2)CCO1.Cl (stereo not drawn) | -30.9%
56 | CCc1nnc(NS(=O)(=O)c2ccc(NC(=O)c3ccc(Br)cc3)cc2)s1 | 23.4%
57 | COc1ccc(N2C(=O)CC(N(CCc3ccc(S(N)(=O)=O)cc3)C(=S)Nc3ccccc3)C2=O)cc1 (stereo not drawn) | 12.5%
58 | O=C(COC(=O)c1ccc(O)cc1O)c1ccc2c(c1)OCO2 | 7.78%
59 | CC1CCN(C(=O)CSc2nc3ncccc3[nH]2)CC1 | 5.84%
60 | CCC(=O)n1nc(-c2ccc(Cl)cc2)nc1N | 3.71%
61 | Nc1[nH]ncc1-c1ccc(Cl)cc1 | 27.9%
62 | O=C(CCn1c(=O)c2sccc2n(CC(=O)OCc2ccccc2)c1=O)NCc1ccccc1 | 5.45%
63 | COc1ccc(/C=N/N2C(=O)C3C4C=CC(C4)C3C2=O)cc1[N+](=O)[O-] (stereo not drawn) | -6.14%
64 | CC1CCCCN1C(=O)CCn1c(=S)oc2ccccc21 (stereo not drawn) | 1.36%
65 | CC1CCN(C(=O)/C=C/c2ccc(C(C)(C)C)cc2)CC1 | -19.3%
66 | C=C(C)Cn1c(N2CC(C)CC(C)C2)nc2c1c(=O)[nH]c(=O)n2C (stereo not drawn) | 2.46%
67 | CCOc1cc(NC(=S)NCCCN(C)C)c(OCC)cc1NC(=O)C1CC1 | 28.8%
68 | Cc1ccc(/C=N/c2sc3c(c2C#N)CCC3)s1 | -8.29%
69 | O=c1[nH]cc(-c2ccccc2)c(=O)[nH]1 | 26.7%

Row | SMILES | hERG current change (%, negative = inhibition) at 10uM
70 | S=C(NCCc1ccccc1)NC1CCC(NC(=S)NCCc2ccccc2)CC1 (stereo not drawn) | 17.1%
71 | CC(=O)c1ccc(NC(=S)N2CC(C)CC(C)C2)cc1 (stereo not drawn) | -11.4%
72 | Oc1ccc(/C=N/n2c(COc3ccccc3)n[nH]c2=S)cc1O | 23%
73 | O=C(N/N=C/C(Cl)=C/c1ccccc1)c1cnccn1 | -15%
74 | O=C(Nc1ccc(S(=O)(=O)Nc2nccs2)cc1)c1ccccc1OC(F)F | 13.4%
75 | COc1ccc(Cn2cccc(NC(=O)Nc3ccc(C#N)cc3)c2=O)cc1 | 4.81%
76 | COc1ccc(C(C)=O)cc1COC(=O)c1ccc(C)c(S(=O)(=O)N2CCOCC2)c1 | -19.8%
77 | O=C(COC(=O)c1cccnc1)Nc1cccc2ccccc12 | 12.7%
78 | COc1ccc(-c2nnc(SC(C)C(=O)Nc3ccc4c(c3)OCCO4)o2)cc1 (stereo not drawn) | -10.3%
79 | C=CCCCCCCCCc1nc(=S)[nH][nH]1 | 9.32%
80 | COc1ccccc1Cn1c(=O)c2ccccc2n2c(SCc3csc(C)n3)nnc12 | -6.34%
81 | CCC1C(=O)NCCN1C(=O)CCc1nnc(CCc2ccc(OC)cc2)o1 (stereo not drawn) | 21.9%
82 | NC(=O)c1c(NC(=O)Cn2nc(C(=O)O)c3ccccc3c2=O)sc2c1CCCC2 | 6.32%
83 | O=c1[nH]nc(-c2ccc(F)cc2)cc1Cc1ccc(F)cc1 | -12%
84 | O=C(c1ccc(S(=O)(=O)N2CCCCC2)cc1)N1CCc2ccccc2C1 | -20.5%
85 | Cn1c(N)c(C(=O)COC(=O)CSc2ccc(Cl)cc2)c(=O)n(C)c1=O | -61.2%
86 | CCN(C(=O)c1cc2cc3ccc(C)cc3nc2o1)c1ccc(OC)cc1 | -4.02%
87 | Cc1cccc(Oc2c(C=O)c3ccccc3n2C)c1 | -14.2%
88 | Cc1ccc(C(C)C)c(OCc2ccc(-c3nnco3)cc2)c1 | -14.1%
89 | CN1CCc2c(sc(NC(=O)CS(=O)(=O)c3ccccc3)c2C(N)=O)C1.Cl | -23.4%
90 | Cc1c(Cl)cccc1N1C(=O)CC(N(O)c2ccccc2)C1=O (stereo not drawn) | 12.1%
